Data on 14 sequences can be found in article PMC5700166.

The list shows a part of the results, in another mix than the full data. The list includes weakly bound sequences.

This assay deals with T1, GST-Co-NF-kB (UniProt F1ARL5).
T1 sequence: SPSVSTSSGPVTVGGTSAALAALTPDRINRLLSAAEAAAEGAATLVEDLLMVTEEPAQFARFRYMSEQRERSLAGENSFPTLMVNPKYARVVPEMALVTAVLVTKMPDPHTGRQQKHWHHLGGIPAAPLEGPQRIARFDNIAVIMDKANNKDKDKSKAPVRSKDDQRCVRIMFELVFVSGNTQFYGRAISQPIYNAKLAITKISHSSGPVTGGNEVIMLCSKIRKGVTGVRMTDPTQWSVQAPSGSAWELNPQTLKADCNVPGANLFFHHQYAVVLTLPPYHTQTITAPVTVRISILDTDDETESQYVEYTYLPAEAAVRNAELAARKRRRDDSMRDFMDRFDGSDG
The assay is described as follows: protein-binding microarray (PBM). Particulars: PBM: ~300 nM protein, 6 mM HEPES pH 7.8, 80 mM KCl, 0.5 mM EDTA, 0.5 mM EGTA, 6% glycerol, 35 ng/ul poly-dIdC, 1% milk, 1 h, room temperature; Ap Aiptasia and Nv Nematostella (sea anemones) / Co Capsaspora / Aq Amphimedon (sponge) / Dm Drosophila / Hu human; RHD is the Rel homology domain; high values mean tight binding; most listed sequences are background and not binding sites; double strand, one strand shown.
Sequence “CCGATTAACATCAACACCCCCCCTGATGTTAATCGGGTCTTGATTCGCTTGACGCTGCTG” returned a binding signal of 5.33 z-score.

“CCGATTAACATCAGACTTCCCCATGATGTTAATCGGGTCTTGATTCGCTTGACGCTGCTG” returned a binding signal of 4.24 z-score. Sequence “CCGATTAACATCACACCCCCCCGTGATGTTAATCGGGTCTTGATTCGCTTGACGCTGCTG” came in with a binding signal of 4.58 z-score. Regarding “CCGATTAACATCAAGGGGGTCCCTGATGTTAATCGGGTCTTGATTCGCTTGACGCTGCTG”, the binding signal came out at 0.797 z-score. For the sequence “CCGATTAACATCAGGGGACACCCTGATGTTAATCGGGTCTTGATTCGCTTGACGCTGCTG”, the binding signal came out at 3.91 z-score. “CCGATTAACATCAACCAATCCCCTGATGTTAATCGGGTCTTGATTCGCTTGACGCTGCTG” yielded a binding signal of 2.16 z-score. As to “CCGATTAACATCAGGGGGTATTATGATGTTAATCGGGTCTTGATTCGCTTGACGCTGCTG”, the binding signal was determined as 4.88 z-score.

As for “CCGATTAACATCAGGGGGTGCACTGATGTTAATCGGGTCTTGATTCGCTTGACGCTGCTG”, the binding signal came to 2.55 z-score.

“CCGATTAACATCAAAAAACCACCTGATGTTAATCGGGTCTTGATTCGCTTGACGCTGCTG” yielded a binding signal of 1.37 z-score. For “CCGATTAACATCAAGGGGAAATCTGATGTTAATCGGGTCTTGATTCGCTTGACGCTGCTG”, the binding signal came out at 7.59 z-score. For “CCGATTAACATCAAAAAACACCCTGATGTTAATCGGGTCTTGATTCGCTTGACGCTGCTG”, the binding signal worked out at 2.93 z-score.

In turn, “CCGATTAACATCAAGGGAATACCTGATGTTAATCGGGTCTTGATTCGCTTGACGCTGCTG” displayed a binding signal of 2.25 z-score. The sequence “CCGATTAACATCAGGATTACCCCTGATGTTAATCGGGTCTTGATTCGCTTGACGCTGCTG” gave a binding signal of 3.97 z-score. In turn, “CCGATTAACATCAGGGGGCATTATGATGTTAATCGGGTCTTGATTCGCTTGACGCTGCTG” returned a binding signal of 2.64 z-score.
